This is an account of results in ChEMBL document CHEMBL4888484, “Replenishing the malaria drug discovery pipeline: Screening and hit evaluation of the MMV Hit Generation Library 1 (HGL1) against asexual blood stage Plasmodium falciparum ,using a nano luciferase reporter read-out” (2022).

Molecules are shown by their SMILES. Hit rate of the full screen: of about 150,000 compounds, about 540 (0.36%) showed an effect of 50% or more. The list shows a part of the results.

The test system of the assay is Plasmodium falciparum. Put plainly: Primary screen in NF54 nanoGlo assay, in single point, at 2uM, 72h; a lower Z score goes with more inhibition. It is filed as functional, Erythrocyte. To be noted: timepoint 72 hour.
In general, % Inhibition refers to the change of the read-out against control, counted positive when it falls. With `Cc1[nH][nH]c(=O)c1CC(=O)NCc1ccc2sccc2c1`, the “% Inhibition” value is reported as -13% and the Z score came to 2.17.
The matching figures for `Cc1cc(=O)c(C(=O)Nc2ccc(CN3CCC[C@H](C)C3)cc2)c[nH]1`: -5% and 0.6.
Take `CC(C)OCCCC(=O)N(C)c1ccnn1C`: the “% Inhibition” value is on record as -10% and the Z score turned out to be 1.39.
Take `O=C(CCn1cncn1)N(Cc1ccoc1)C1CCCCC1`: the “% Inhibition” value is reported as -2% and the Z score was 0.41.
Take `C[C@H](CCC(=O)Nc1cc(F)c(F)c(F)c1)[C@H]1CC[C@H]2[C@@H]3CC[C@@H]4C[C@H](O)CC[C@]4(C)[C@H]3C[C@H](O)[C@]12C`: the “% Inhibition” value is given as -7% and the Z score is listed as 0.86.
For `C[C@H](O)C1CCN(C(=O)Cc2ccon2)CC1`, the “% Inhibition” value is reported as 0% and the Z score is -0.05.
`CCOc1ncccc1C(=O)N[C@H]1C[C@@H](c2cc(NC)ncn2)C1`: the “% Inhibition” value is -7% and the Z score is listed as 0.91.
Take `CCCCN(C)C(=O)Nc1cc(OC)ncn1`: the “% Inhibition” value is on record as -5% and the Z score is on record as 0.78.
In the case of `Cc1cnccc1NC(=O)N[C@@H](C)c1ccc(OC(F)F)cc1`, the “% Inhibition” value was -6% and the Z score was 0.54.
Consider `Cc1cc(C)c(C(=O)NCCOCC(F)F)c(C)c1`, for which the “% Inhibition” value is given as -12% and the Z score is recorded as 2.47.
On to `COc1nc(C)c(C(=O)N2CCOC[C@@H](CO)C2)s1`, for which the “% Inhibition” value is on record as -2% and the Z score is reported as 0.33.
On the same counts, the results for `CC(C)n1nccc1NS(=O)(=O)c1ccc2c(c1)OCCO2` are -15% and 2.34.
For `Cc1cc(C)n(C[C@H](O)COc2cccc3[nH]ccc23)n1`, the “% Inhibition” value is listed as -7% and the Z score came to 0.89.
On to `Cc1cccc(-c2cn[nH]c2C2CCNCC2)c1`, for which the “% Inhibition” value is on record as 5% and the Z score was -0.68.
With `Cc1cccc(C)c1-n1ncc(C(=O)NC2CCCC2)c1C1CCN(C(=O)OC(C)(C)C)CC1`, the “% Inhibition” value was 2% and the Z score was -0.23.
Consider `Cc1cc(C)nc(CNC(=O)N2CCC3(CC2)COC(=O)O3)n1`, for which the “% Inhibition” value is listed as -1% and the Z score worked out at 0.17.
The matching figures for `CCc1nc(CN2CC[C@](C)(O)[C@H](C)C2)cs1`: -11% and 1.11.
Take `O=C(c1nn(-c2ccccc2F)cc1O)N1CCN2CCS(=O)(=O)C[C@@H]2C1`: the “% Inhibition” value was -13% and the Z score was found to be 2.05.
As for `CCCCN1C(=O)[C@](NS(=O)(=O)c2ccc(NC(C)=O)cc2)(C(F)(F)F)C(C(C)=O)=C1C`, the “% Inhibition” value is -7% and the Z score came out at 0.92.
Turning to `O=C1C[C@@H]2CCN(Cc3ccccn3)C[C@@H]2CCOc2ccc(F)cc2N1`, the “% Inhibition” value is -7% and the Z score stood at 1.07.
For the molecule `O=C(NCC1CCCN(c2ncccc2Br)C1)C1CCCN1` (stereo not drawn), the “% Inhibition” value is -6% and the Z score is 1.05.
`Nc1nonc1C(=O)N1CCN(C(=O)Nc2ccc3c(c2)OCCO3)CC1`: the “% Inhibition” value is given as 30% and the Z score is -3.98.
As to `CC(=O)N[C@@H](C)CC(=O)N(CCO)Cc1cccs1`, the “% Inhibition” value is on record as -5% and the Z score is listed as 0.74.
On the same counts, the results for `COc1cc(-c2ncc(C(F)(F)F)cc2Cl)cc2c1OCCNC2` are 20% and -2.49.
Consider `Brc1ccc(CNc2nc(-c3ccco3)n[nH]2)cc1`, for which the “% Inhibition” value is on record as -8% and the Z score was 1.45.
Take `CC1(c2nc(-c3ccnc(O)c3)no2)CCCCC1`: the “% Inhibition” value is recorded as -5% and the Z score was 0.57.
Take `O=C(Nc1nc(NC(=O)c2ccccc2)nc(NC(=O)c2ccccc2)n1)c1ccccc1`: the “% Inhibition” value is recorded as -6% and the Z score was 1.23.
For `CN1CCN(C[C@H]2CCC3(CCN(S(=O)(=O)c4cc(F)cc(F)c4)CC3)O2)CC1`, the “% Inhibition” value is given as -7% and the Z score was 0.95.
On the same counts, the results for `COc1cccn(CC(=O)N2C[C@@H]3[C@H](C2)[C@H]2CC[C@@H]3O2)c1=O` are -8% and 1.37.
For the molecule `C[C@@H]1CC[C@H](CO)N1CC1CC2(CCC2)CO1` (stereo partly drawn), the “% Inhibition” value is given as -12% and the Z score turned out to be 1.25.
As for `Cc1ccccc1CC1(NC(=O)c2ccn(C)c2C)CC1`, the “% Inhibition” value was -4% and the Z score stood at 0.52.
Consider `Cc1cccc2[nH]c([C@@H]3CCCN3C(=O)c3cc(C4CC4)n[nH]3)nc12`, for which the “% Inhibition” value is reported as -7% and the Z score was 0.87.
`CO[C@H]1COC[C@@H]1NC(=O)c1c(F)cccc1Cl`: the “% Inhibition” value was -26% and the Z score came to 2.58.
As to `O=S(=O)(Nc1ccc(Cl)cn1)c1ccc2ccccc2c1`, the “% Inhibition” value is recorded as 1% and the Z score is -0.15.
`CCc1nnc([C@@H]2Cc3ccccc3CN2)o1`: the “% Inhibition” value is on record as -5% and the Z score came out at 0.71.
`CC(=O)Nc1cccc(Cn2ccnn2)c1`: the “% Inhibition” value is -15% and the Z score is 1.58.
For `COc1ccc(Cl)cc1C(=O)N1CC(n2ccnn2)C1`, the “% Inhibition” value is given as 3% and the Z score is -0.55.
Regarding `Cc1noc(COC2CN(C(=O)N[C@H]3CCN(c4ncccc4Cl)C3)C2)n1`, the “% Inhibition” value is -7% and the Z score worked out at 1.19.
With `Cc1nc(C)c(F)c(N2CC[C@H](Oc3cccnc3N(C)C)C2)n1`, the “% Inhibition” value is reported as -14% and the Z score came out at 1.81.
For `CCCS(=O)(=O)NC(=O)C1CC1c1cccc(F)c1F` (stereo not drawn), the “% Inhibition” value is given as -7% and the Z score was 0.55.
On the same counts, the results for `O=c1cc2c(nn1CC1CN(c3cc(=O)n4ccccc4n3)C1)CCC2` are -25% and 3.58.
Turning to `Cn1ncn(CC(=O)NCC2(N3CCOCC3)CCCCC2)c1=O`, the “% Inhibition” value was -12% and the Z score is 1.71.
As to `CC(C)(O)c1cc(CC2(NCc3cccc4c3OCO4)COC2)no1`, the “% Inhibition” value is given as 1% and the Z score is given as -0.12.
Turning to `CC(C)C1CCC(C(=O)NC(Cc2ccccc2)C(=O)NC2CCS(=O)(=O)C2)CC1` (stereo not drawn), the “% Inhibition” value worked out at 4% and the Z score is listed as -0.57.
On to `O=C(Nc1cccnc1)N1CCC(CN2C(=O)c3ccccc3C2=O)CC1`, for which the “% Inhibition” value is -11% and the Z score is given as 0.96.
For `CC(C)C[C@H](CCO)CNC(=O)NCC1CC1`, the “% Inhibition” value is reported as -6% and the Z score is recorded as 1.07.
Regarding `Cc1nnc([C@H](C)N2CCCN(Cc3ccccc3C)CC2)o1`, the “% Inhibition” value is given as 0% and the Z score was found to be 0.03.
As to `Cc1cc(C)nc(CN(C)C(=O)NCCCN2CCCC2=O)c1`, the “% Inhibition” value was -7% and the Z score was determined as 0.93.
Turning to `COCc1noc(-c2n[nH]c(=O)c3ccccc23)n1`, the “% Inhibition” value was -9% and the Z score amounted to 1.32.
On to `c1cc2cc(Cn3cnc4c3CCCC4)ccc2cn1`, for which the “% Inhibition” value is -6% and the Z score was found to be 0.71.
Consider `c1ccc(C2=NN(c3ccc(-c4cc(-c5ccccc5)[n+](-c5ccccc5)c(-c5ccccc5)c4)cc3)[C@H](c3ccccc3)C2)cc1`, for which the “% Inhibition” value amounted to 91% and the Z score was -14.02.
`CC(C)CC[C@H]1CCCCN1CCCC(=O)O`: the “% Inhibition” value was -12% and the Z score came to 1.51.
The matching figures for `COc1ccccc1C/N=C1\C(c2ccc(C(C)C)cc2)=Nc2ncnn21`: -4% and 0.52.
With `Cc1n[nH]c(C)c1CCC(=O)N1CCC(n2c(=O)[nH]c3ccsc3c2=O)CC1`, the “% Inhibition” value was -11% and the Z score is 2.16.
